“And” between values parts separate entries of the source, which are not always exact repeats. Identical values can stand only once. About 50,000 (12%) of roughly 420,000 compounds were called active. This list was built around the results that the source calls inconclusive (neither active nor inactive); the mix of calls is not that of the screen. Calls follow the shape of the dose curve; as a rule, active = well fitted inhibition curve with a large enough effect; inconclusive = small, poorly fitted or top-dose-only effect; inactive = flat fitted curve, though single readings scatter. Potencies beside an inconclusive call are fits to weak or partial responses and may not hold up.
Assay: qHTS for Inhibitors of human tyrosyl-DNA phosphodiesterase 1 (TDP1): qHTS in cells in presence of CPT; also: nearly all actives have a fitted effect of over 55% in size
Conditions: chicken DT40 Tdp1-/-;hTDP1 cells + 20 nM CPT, ATP luminescence, 48 h; activity change, negative = growth inhibition: at 46.2 µM (top of the series)
Summary of the method: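 Chicken DT40 Tdp1-/- cells stably complemented with human TDP1 were seeded at 400 cells/well in medium containing 20 nM camptothecin, exposed to pin-transferred compounds, and grown at 37 °C for at least 48 hr. Viability was read as ATP luminescence.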
% is scaled to controls: 0 for no effect and ±100 for the full control effect; potency is read from the fitted curve at half-maximal effect; tags tell the direction and shape of the fitted curve.

| SMILES | Potency | activity change, negative = growth inhibition |
| --- | --- | --- |
| CC(C)(C)NC(=O)c1cccc(NC(=O)Cc2cccs2)c1 | inactive |  |
| CSc1nc(N)nc2c1ncn2CC(=O)NCCNc1ccc([N+](=O)[O-])cn1 | inconclusive: 16.4 µM [inhibitor, single point] |  |
| CCCCc1c(C)c(C#N)c2[nH]c3ccccc3n2c1=O | active: 23.1 µM |  |
| CC1=C(C(=O)OC(C)C)C(c2cccs2)C(C(=O)OC(C)C)=C(C)N1 | inconclusive: 16.4 µM [inhibitor, single point] |  |
| CCN(CC(=O)Nc1cc(Cl)ccc1-n1cncn1)Cc1nc2ccccc2c(=O)[nH]1 | inactive |  |
| C/C(=N/NC(=O)CNC(=O)c1ccc2c(c1)OCO2)c1ccc2c(c1)CCCC2 | inactive |  |
| CCN(CC)CCOC(=O)c1ccc(NC(=O)C2(c3ccccc3)CCCC2)cc1 | inconclusive: 15.8 µM [inhibitor, partial curve, poor fit] |  |
| CN(C)CCOc1ccccc1-c1ccccc1 | inactive |  |
| O=C(CN1CCN(CC(=O)Nc2ccc(Cl)cc2)CC1)Nc1ccc(F)cc1 | inactive |  |
| CCN(c1ccccc1)c1nnc(NC(=O)Nc2ccc(Br)cc2)s1 | active: 2.91 µM |  |
| Cn1cnc(S(=O)(=O)N2CCC(C(=O)NCc3ccccc3Cl)CC2)c1 | inactive |  |
| COc1ccc(S(=O)(=O)Nc2ccc(Oc3ccsc3C(=O)O)cc2)cc1 | inactive |  |
| CCOC(=O)c1c(NC(=O)/C=C/c2ccc(C(C)C)cc2)sc2c1CCC2 | inactive |  |
| CCOc1ccc(-n2c(C)c(C(C)=O)c3cc(OC(C)=O)ccc32)cc1 | inconclusive: 6.51 µM [inhibitor, partial curve] |  |
| Cc1cccc(C)c1NC(=O)Cn1cc(C=O)c2ccccc21 | active: 20.6 µM |  |
| CCOC(=O)C1(CCOC)CCN(Cc2nc(C(C)C)cs2)CC1 | inconclusive: 25.9 µM [inhibitor, partial curve] |  |
| COc1ccc(-c2oc3c(OC)c(OC)c(OC)c(O)c3c(=O)c2OC)cc1OC | inconclusive: 25.9 µM [inhibitor, single point] |  |
| COc1cccc(NC(=O)COC(=O)CCn2c(C)csc2=O)c1 | inactive |  |
| COc1ccc(N(CC(=O)NCCSCc2ccco2)S(=O)(=O)c2ccccc2)cc1OC | inconclusive: 29.1 µM [inhibitor, single point] |  |
| Cc1ccc(S(=O)(=O)N(C)C)cc1NC(=O)COC(=O)c1sc2cc(Cl)ccc2c1Cl | inconclusive: 23.1 µM [inhibitor, single point] |  |
| O=C(Nc1ccc(S(=O)(=O)N2CCOCC2)cc1)c1ccc(Br)o1 |  | inconclusive: -30.7% [inhibitor] |
| Cc1ccc(C(=O)CC2(O)C(=O)N(Cc3ccccc3F)c3ccccc32)cc1 (stereo not drawn) | inconclusive: 29.1 µM [inhibitor, single point] |  |
| CC(=O)Nc1ccc(-c2nnn(CC(=O)c3ccc(F)cc3)n2)cc1Cl | inactive |  |
| COc1ccc(C2C(C#N)=C(C)NC3=C2C(=O)CC(C)(C)C3)cc1 (stereo not drawn) | inactive |  |
| COc1ccc(NC(=O)Nc2ccc(F)c(Cl)c2)cc1 | inconclusive: 18.4 µM [inhibitor, single point] |  |

| SMILES | Potency | activity change, negative = growth inhibition |
| --- | --- | --- |
| O=C(CCSc1ccccc1)N1CCN(c2ccccc2)CC1 |  | inconclusive: -30.9% [inhibitor] |
| CCc1ccc(OC(C)c2nc(-c3ccc(-n4cccc4)cc3)no2)cc1 (stereo not drawn) | inactive |  |
| Cc1nc(C(C)NC(=O)c2cc(COc3ccc(F)c(F)c3)on2)cs1 (stereo not drawn) | inconclusive: 25.9 µM [inhibitor, single point] |  |
| Cc1cc(C)c(C(=O)COC(=O)c2ccc(NC(=O)CC#N)cc2)cc1C |  | inconclusive: -31.3% [inhibitor] |
| CCC(=O)N1CCC1(C)C(=O)Nc1cc(-c2ccccc2)nn1C (stereo not drawn) | inactive |  |
| C=CC[n+]1cccc(-c2cc3ccc(C)cc3[nH]2)c1 | inconclusive: 18.4 µM [inhibitor, partial curve] |  |
| CCOC(=O)N1CCN(CC(=O)N2c3ccccc3Sc3ccccc32)CC1 | inconclusive: 29.1 µM [inhibitor, single point] |  |
| CCOC(=O)[C@]12CCCC=C1N(CCc1ccc(OC)c(OC)c1)C(=O)[C@H](CC(=O)NCCc1ccccc1OC)C2 | active: 13 µM |  |
| COc1ccc(-c2ccc(C#N)c(SCC(=O)OCc3ccccc3)n2)cc1OC | inconclusive: 25.9 µM [inhibitor, single point] |  |
| Cc1cc(Cl)ccc1OCCCC(=O)NCCCn1ccnc1 | inconclusive: 23.1 µM [inhibitor, single point] |  |
| CCN(CC)C(=O)[C@H]1CC(CC(=O)NCc2cccc(C(F)(F)F)c2)C(=O)N2CCc3c([nH]c4ccc(OC)cc34)[C@]12C (stereo partly drawn) | active: 16.4 µM |  |
| CSc1nc2ccc(NC(=O)c3ccco3)cc2s1 | inconclusive: 29.1 µM [inhibitor, partial curve] |  |
| CC(C)(C)NC(=O)C(CCc1ccccc1)n1c(=O)c(-c2cc3ccccc3[nH]2)nc2ccccc21 (stereo not drawn) | active: 14.6 µM |  |
| Cc1nc([N+](=O)[O-])c(Br)n1CC(=O)c1ccc2ccccc2c1 | active: 20.6 µM |  |
| CC(C)NC(=O)c1cc(-c2cccs2)nc2ccccc12 | inactive |  |
| COc1cc(=O)n2c(c1C(=O)NC(C)c1ccco1)CCN(Cc1cc(C)ccc1C)CC2 (stereo not drawn) |  | inactive: -4.74% [at 9.04 µM] |
| O=C(NCc1ccccc1)c1onc(CSc2ccc(Cl)cc2)c1C(=O)NCc1ccccc1 | inconclusive: 20.6 µM [inhibitor, partial curve] |  |
| Cc1ccc2c(c1)CCCN2C(=O)CCc1nc2ccccc2c(=O)[nH]1 | active: 0.461 µM |  |
| CCOc1ccc(CCNc2ncnc3onc(-c4ccc(Cl)cc4)c23)cc1OCC | inconclusive: 29.1 µM [inhibitor, single point] |  |
| COCc1nc2cccnc2n1C1CCN(S(=O)(=O)N(C)C)CC1 | inactive |  |
| CC1(C(=O)NS(=O)(=O)Cc2ccccc2C(F)(F)F)CCN1C(=O)Cc1cccs1 (stereo not drawn) | inconclusive: 16.4 µM [inhibitor, single point] |  |
| CCCCN(C=O)c1c(CC)nc2c(OCCOc3ccc(F)cc3)cccn12 | inconclusive: 25.9 µM [inhibitor, single point] |  |
| Cc1ccc(C2(C)NC(=O)N(CC(=O)NCCC3=CCCCC3)C2=O)cc1 (stereo not drawn) | inconclusive: 29.1 µM [inhibitor, single point] |  |
| O=S(=O)(NCc1csc(-c2ccccc2)n1)c1cccc(F)c1 | inconclusive: 29.1 µM [inhibitor, single point] |  |
| CCOC(=O)C1=C(O)/C(=C\c2cc(C)n(-c3ccc(F)cc3)c2C)N=C1C | inconclusive: 16.4 µM [inhibitor, single point] |  |

| SMILES | Potency | activity change, negative = growth inhibition |
| --- | --- | --- |
| Cc1cccc(-c2nc3c(c(SCC(=O)N4CCOCC4)n2)Cc2c(CO)cnc(C)c2O3)c1 | inconclusive: 9.2 µM [inhibitor, partial curve, poor fit] |  |
| CC(OC(=O)c1ccc2c(=O)n3c(nc2c1)CCCCC3)C(N)=O (stereo not drawn) | inactive |  |
| CN(CC(=O)Nc1cccc(F)c1)C(=O)CN1c2cccc3cccc(c23)S1(=O)=O | inactive |  |
| OC(CCN1CCCCC1)(c1ccccc1)C1CC2C=CC1C2 (stereo not drawn) | inconclusive: 33.5 µM [inhibitor, single point] and inconclusive: 29.9 µM [inhibitor, single point] |  |
| Cn1c(=O)c(C(=O)CSc2ccccc2)c(N)n(Cc2ccccc2)c1=O | inactive |  |
| O=C(COC(=O)CN1C(=O)NC2(CCCC2)C1=O)NCc1ccc(Cl)cc1Cl | inactive |  |
| COc1ccc(NC(=O)C(c2ccc(C)cc2)N(C)C(=O)/C=C\c2ccc3c(c2)OCO3)cc1 (stereo not drawn) | inconclusive: 25.9 µM [inhibitor, single point] |  |
| CCOC(=O)c1ccc(NC(=O)CCc2c(C)nc3c(c(C)nn3-c3ccccc3)c2C)cc1 | active: 16.4 µM |  |
| COc1ccc(C(=O)O)cc1S(=O)(=O)Nc1ccccc1-c1ccccc1 | inactive |  |
| CCC(=O)NN1CCc2cc3ccc(C)cc3nc21 | inactive |  |
| COc1ccc(CCNc2cc(C)nc3c(-c4ccc(Cl)cc4)cnn23)cc1OC | active: 20.6 µM |  |
| CC[C@]12c3[nH]c4ccc(Cl)cc4c3CCN1C(=O)[C@@H](CC(=O)NCc1ccco1)C[C@@H]2C(=O)N1CCN(C(=O)C2CC2)CC1 | inconclusive: 18.4 µM [inhibitor, single point] |  |
| COC(=O)c1ccc(N=c2sc(C(=O)OC)cc(=O)n2C)cc1 | active: 20.6 µM |  |
| COc1cccc(C2=C(C(C)=O)Sc3nncn3N2C(C)=O)c1 | inconclusive: 16.4 µM [inhibitor, single point] |  |
| O=C(NNC(=S)Nc1ccc(Br)cc1)c1ccccc1Br | inconclusive: 29.1 µM [inhibitor, single point] |  |
| COc1ccc(-c2nc3c(c4nnc(SC(C)C(=O)Nc5ccccc5)n24)COC(C)(C)C3)cc1 (stereo not drawn) | inactive |  |
| COc1cc(CNc2ccc3[nH]c(=O)[nH]c3c2)ccc1OCc1ccccc1Cl | inconclusive: 18.4 µM [inhibitor, single point] |  |
| O=C(CCN1C(=O)CSC1=O)Nc1ccc(Br)cc1 | inconclusive: 20.6 µM [inhibitor, partial curve] |  |
| Cc1noc(C)c1C(=O)OC(C)C(=O)NC(C)c1ccc(Cl)cc1Cl (stereo not drawn) | inconclusive: 29.1 µM [inhibitor, single point] |  |
| COc1cccc(CN2CCC(C(=O)Nc3ccc(Oc4cccnc4)cc3)CC2)c1 | inconclusive: 23.1 µM [inhibitor, single point] |  |
| CNc1ncncc1-c1ccccc1C | inactive |  |
| O=Cc1cc(OCc2ccccc2)ccc1[B-](F)(F)F | active: 1.3 µM |  |
| COc1ccc(CN(C)C(=O)COC(=O)c2c(C)nn(-c3ccc(F)cc3)c2Cl)cc1 | inconclusive: 29.1 µM [inhibitor, single point] |  |

From PubChem BioAssay AID686979 (National Center for Advancing Translational Sciences (NCATS), 2013)
